Data published in the supplement of paper PMC11417369.
± gives the standard deviation of the averaged measurements. The list shows a part of the results.

system: PfAP2-EXP AP2 domain (GST-tagged); assay: gcPBM binding intensity (ln(normalized median fluorescence intensity)); higher = stronger DNA binding
In short: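 Binding intensity is defined as the maximum Masliner-normalised natural-log median intensity across replicate spots for either probe orientation. It was measured on an Agilent 4 × 180k array of primer-extended double-stranded 36-bp intergenic genomic probes and negative controls, to which GST-tagged P. falciparum DNA-binding domains made in E. coli were applied for 1 h in 1× PBS with 1% milk, 0.2 mg/ml BSA, 0.5% salmon testes DNA and 0.03% Triton X-100. Detection was by Alexa488 anti-GST antibody and scanning at 488 nm.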

In order of rising “gcPBM binding intensity (ln)” value:
1. TTTTTTTTTAAGATGAAGATCAATATATAAATATAT [CACACA_negctrl_site1538]  7.96 ± 0.47
2. AATTAAATTACTTATACACACATAAAATGGGTGTAT [CACACA_site4703]  8.05 ± 0.45
3. AAAAAAAAATCAAAATGTACTTATTTTTATAATAAT [XGTACX_site4712]  8.07 ± 0.45
4. TGAACAATATATAATAGTACATATTTATTTTTTTCT [XGTACX_site4256]  8.13 ± 0.2
5. TTAAAATAAAGTAGTGGTACAAAAAAAAAAAAAAAA [XGTACX_site6322]  8.16 ± 0.26
6. TAAACAAATAAATAAACACACAATATCTGTATTTAT [CACACA_site5978]  8.17 ± 0.27
7. TTTTTCAGAAAAGAAACACACATATTTATATTTATA [CACACA_site7167]  8.2 ± 0.4
8. TATATATAAAAATATACACACACAAATGTATATATA [CACACA_site7956]  8.21 ± 0.23
9. TTTTTTTTTTTAAATTCACACAATATATAAATATTG [CACACA_site5201]  8.21 ± 0.33
10. ATAAAAAAAAATATTTGTACACATATTTATATATTA [XGTACX_site8147]  8.24 ± 0.29
11. TAAAGATGAAATATCACACATATATAAATATATAAA [CACACA_site4580]  8.25 ± 0.27
12. AAAAATATAATATATGCACACATACATACATATATA [CACACA_site7915]  8.27 ± 0.37
13. TTTTTTTTAATGAGAAGTACGGTCTTTCAATGTCTT [XGTACX_site6773]  8.28 ± 0.41
14. TATATATTTAATTTCACACATATATATAATTATTAT [CACACA_site4936]  8.28 ± 0.27
15. CTATATATATATTTCAGTACATATTAAGAATATATA [XGTACX_site4860]  8.31 ± 0.38
16. GCATATATTATATATTTATTTATTTTTTTTTTTTAA [GTGCAC_negctrl_site193]  8.32 ± 0.46
17. AAAAAAAAAAAACATACACACATACATACCTATATA [CACACA_site6575]  8.34 ± 0.58
18. ATATGTTTTTTTTTTTTTTTTTAATTTGTCATAAAT [CACACA_negctrl_site1208]  8.35 ± 0.49
19. TCTTTCAATATTAATGCATGTTAATAATAAATTTTA [TGCATGCA_site448]  8.35 ± 0.23
20. ATATATACAAAGGATTAACACACATATTATTATATA [CACACA_site8563]  8.36 ± 0.46
21. AGAATATCAAAATAAAGTACATTTATTATATATATG [XGTACX_site7100]  8.37 ± 0.46
22. TCATATGTTAAATGATGTACATTTAATATAAATAAA [XGTACX_site900]  8.38 ± 0.15
23. TTCGTTATAATTGAATTTACAATATGCTTTATAATG [XGTACX_negctrl_site238]  8.38 ± 0.36
24. TAAATTACATGAAATTGTACATGAATATTAAATATA [XGTACX_site3909]  8.38 ± 0.42
25. AGAAAAATTATTTTGCGTACATATTTACAATAAAAA [XGTACX_site2144]  8.38 ± 0.29
26. TATACATCATTTTTCAACAACAAAAAAAAAAAAAAT [CACACA_negctrl_site1185]  8.4 ± 0.47
27. TATATGTATATATATTAACACACAAAAAAAAAAAAA [CACACA_site8534]  8.41 ± 0.58
28. TTTTACTTAAAACACACACACACAAAAAAAAAAAAA [CACACA_site947]  8.41 ± 0.49
29. TATATAAATATATACACACATACATACATACATATA [CACACA_site3835]  8.43 ± 0.38
30. CGTATATATAAATACACACACATATATATCTGTAAA [CACACA_site4272]  8.45 ± 0.5
31. ATGTAATGAAACATTGCACACATATAATAATATAAT [CACACA_site8402]  8.45 ± 0.46
32. AATAAAGGAAATAAATAATTTATTTTGTAAAATATG [CACACA_negctrl_site97]  8.46 ± 0.39
33. AATTTATTAGATAGATGTACATTTTAATAAAAGTAG [XGTACX_site6819]  8.46 ± 0.26
34. ATTCTTATAACAAGAAGTACAAATATATGTATATAT [XGTACX_site4528]  8.46 ± 0.35
35. TTAATTTATTTATGCACACATATATAATTACCCATA [CACACA_site682]  8.46 ± 0.14
36. TTCTAATAAATGTGTTGTACACCTTTAGCAACTATT [XGTACX_site3235]  8.47 ± 0.24
37. AGGAAAAAAGAAAAAACACACATAAATATTTATATA [CACACA_site7446]  8.48 ± 0.66
38. AACATCAATTTATTTTCTTACATTATACGATTCATG [CACACA_negctrl_site1300]  8.5 ± 0.47
39. TAACCTATAATATTCACACACATATAAATATTATAG [CACACA_site6592]  8.5 ± 0.4
40. TCCCCTTAATTTAAAACACACAAACAAATAAGTTAG [CACACA_site5973]  8.52 ± 0.39
41. TATATATATTTATGCACACAAAATATATTATATAAT [CACACA_site5955]  8.515 ± 0.078
42. AAAAAAAAAAAAAAGCGTACAAATAAAATATATTTA [XGTACX_site7195]  8.52 ± 0.49
43. AAAATATTTATATTTACACACACATAATACATATAT [CACACA_site32]  8.54 ± 0.45
44. TAATAATTACAAAGAAGTACATAAAAAAAAATTTAT [XGTACX_site4684]  8.54 ± 0.32
45. AAAAAAAATATAATATGTACATATCTATATATCAAC [XGTACX_site4881]  8.55 ± 0.38
46. TAAATACTTCGTAAAACACACAAGTAGAAAAAAAAA [CACACA_site360]  8.56 ± 0.47
47. AAAAAACACGCGCACACACACACACGCGCCCACATA [CACACA_site7106]  8.57 ± 0.21
48. TTTTTATATGCGTATTGTACATTATACATATATATA [XGTACX_site6786]  8.57 ± 0.28
49. AATATTTTTTTTTAAACATGCATATTTGCATTACCC [TGCATGCA_site437]  8.58 ± 0.41
50. ATTGTGTTGACGGGTGACCCTTCCAGAGAAATAGAA [CACACA_negctrl_site1362]  8.6 ± 0.51
51. ATTAAATCGATATATACACACATGTTTGGTATATTC [CACACA_site7285]  8.6 ± 0.34
52. TAATTATGCCAACACACACACACACCCAACTAAAAA [CACACA_site8823]  8.63 ± 0.57
53. TATACATATGAAAATACACACATACATACAGATATA [CACACA_site5002]  8.65 ± 0.38
54. TCTTTCTTATTTTAATGATATTTATTCATTCCAGTT [CACACA_negctrl_site1679]  8.66 ± 0.44
55. CTTATAAAAAAAATTGCACACATATTATACAGGACG [CACACA_site8133]  8.67 ± 0.33
56. GTGTACAGTTTTTGCACACATATAAATAAAAAAAAG [CACACA_site3599]  8.68 ± 0.3
57. ATATAAATAAATATATGTACACACACAAATATATAC [XGTACX_site3950]  8.68 ± 0.27
58. GTACATTATTTATATACACACAAAGAAAAATATACA [CACACA_site3452]  8.68 ± 0.39
59. CATTAACAAATAAATGCACACATATATATAAATAAT [CACACA_site7892]  8.69 ± 0.014
60. ATATATATAAATACAACACACATGTAATATATAAAT [CACACA_site5766]  8.7 ± 0.39
61. TTATTTATTTATTGTTGTACACAAAATGATTCTTAA [XGTACX_site6480]  8.7 ± 0.2
62. ATATATATGAATACATGTACGTATTTGTCTATGTAT [XGTACX_site8306]  8.71 ± 0.35
63. TAAAGCATATTATAAACACACACTGTATAAAGATAT [CACACA_site296]  8.71 ± 0.55
64. TTTTCTCTCAAAAAATGTACATAATATATATATTTT [XGTACX_site4861]  8.72 ± 0.47
65. CAATGTTAACATATTACACACATATGTATTTATAAT [CACACA_site5512]  8.73 ± 0.47
66. AACAAATATATATGTAGTACATGTTGTAGATAATTT [XGTACX_site24]  8.73 ± 0.3
67. AGAATTATTCTAAAAACACACAATACAAAAGTGCAT [CACACA_site3004]  8.76 ± 0.27
68. ATGATGTGCAAGAGTAGTACACAATTTTGGGTTTAT [XGTACX_site501]  8.76 ± 0.39
69. TAAAAATTAAAACTGGGTACAAATTTATAGATAGCC [XGTACX_site8075]  8.79 ± 0.33
70. AATACTAAAACCCATACACACACATATATATAGTAC [CACACA_site9041]  8.81 ± 0.28
71. TTTAAAATATATAGTACACACGTGAACACAAATACA [CACACA_site4392]  8.82 ± 0.36
72. TTTACATTTATGTGCACACATTCCATTTGAAAGTAA [CACACA_site1953]  8.88 ± 0.18
73. TAAATGTCCTTATTTGCACACACACCCATAAGAAAT [CACACA_site3185]  8.94 ± 0.11
74. ATAATTAGTTCAATTTTTTTTTTTTTTTTTTTTTTT [CACACA_negctrl_site1371]  8.96 ± 0.13
75. AGTAATAGTTTGTGCACACTCAAGTATATCATATAT [CACACA_site4034]  8.97 ± 0.17
76. CCTTTTTTGTTTTATGCACACCATATAACCAAGGCT [CACACA_site7893]  8.98 ± 0.18
77. ATAACTTTCTATACATGTACACATATATGGTATTTT [XGTACX_site7535]  9.04 ± 0.35
78. ATTAATTATATATATACACACACATACACCCAAATA [CACACA_site9126]  9.11 ± 0.56
79. ATAAATTTTTTATGAACACACAAATACACCCACTCA [CACACA_site5465]  9.14 ± 0.38
80. ACTTTTACACTTTGATTGCACTACTAAACCAGTTCA  9.15 ± 0.32
81. TTGTTTTTAATATCGGTGCAATGGAAAGAAAAGAAG [GTGCAC_site9494]  9.22 ± 0.38
82. ACGTAAAATAGGGACGCATGCACAAATATTTTTAAA [TGCATGCA_site336]  9.53 ± 0.37
83. TACGTAAAATAATTGAGTACATAATTATATATATAT [XGTACX_site5361]  9.76 ± 0.11
84. AAAAATAATCATTAGGTGCAAAAAATATATATATAT [GTGCAC_site9631]  9.93 ± 0.11
85. AAACAAAACAAAACATGTACACATTATATATATATA [XGTACX_site3374]  9.94 ± 0.014
86. AAAAAAAACATCCTCACACATATATATATATATATA [CACACA_site5166]  10.1 ± 0.46
87. TGTATATATTTTAATAGTACTCATATATATATATAT [XGTACX_site7216]  10.1 ± 0.45
88. AAACATAAGAAACACACACACATATATATATATATA [CACACA_site3642]  10.1 ± 0.35
